Experimental data as given in publication PMC4336329 (PLoS ONE, 2015).
The whole screen tested about 310,000 compounds, of which about 2,200 (0.71%) showed an effect of 50% or more. Effects have a minus sign here. This is one part of the list.

molecular target: human ether-à-go-go-related gene (hERG) potassium channel (human, UniProt Q12809); test: primary screen, population patch clamp on CHO cells stably expressing hERG
Sequence (Q12809 whole entry, looked up): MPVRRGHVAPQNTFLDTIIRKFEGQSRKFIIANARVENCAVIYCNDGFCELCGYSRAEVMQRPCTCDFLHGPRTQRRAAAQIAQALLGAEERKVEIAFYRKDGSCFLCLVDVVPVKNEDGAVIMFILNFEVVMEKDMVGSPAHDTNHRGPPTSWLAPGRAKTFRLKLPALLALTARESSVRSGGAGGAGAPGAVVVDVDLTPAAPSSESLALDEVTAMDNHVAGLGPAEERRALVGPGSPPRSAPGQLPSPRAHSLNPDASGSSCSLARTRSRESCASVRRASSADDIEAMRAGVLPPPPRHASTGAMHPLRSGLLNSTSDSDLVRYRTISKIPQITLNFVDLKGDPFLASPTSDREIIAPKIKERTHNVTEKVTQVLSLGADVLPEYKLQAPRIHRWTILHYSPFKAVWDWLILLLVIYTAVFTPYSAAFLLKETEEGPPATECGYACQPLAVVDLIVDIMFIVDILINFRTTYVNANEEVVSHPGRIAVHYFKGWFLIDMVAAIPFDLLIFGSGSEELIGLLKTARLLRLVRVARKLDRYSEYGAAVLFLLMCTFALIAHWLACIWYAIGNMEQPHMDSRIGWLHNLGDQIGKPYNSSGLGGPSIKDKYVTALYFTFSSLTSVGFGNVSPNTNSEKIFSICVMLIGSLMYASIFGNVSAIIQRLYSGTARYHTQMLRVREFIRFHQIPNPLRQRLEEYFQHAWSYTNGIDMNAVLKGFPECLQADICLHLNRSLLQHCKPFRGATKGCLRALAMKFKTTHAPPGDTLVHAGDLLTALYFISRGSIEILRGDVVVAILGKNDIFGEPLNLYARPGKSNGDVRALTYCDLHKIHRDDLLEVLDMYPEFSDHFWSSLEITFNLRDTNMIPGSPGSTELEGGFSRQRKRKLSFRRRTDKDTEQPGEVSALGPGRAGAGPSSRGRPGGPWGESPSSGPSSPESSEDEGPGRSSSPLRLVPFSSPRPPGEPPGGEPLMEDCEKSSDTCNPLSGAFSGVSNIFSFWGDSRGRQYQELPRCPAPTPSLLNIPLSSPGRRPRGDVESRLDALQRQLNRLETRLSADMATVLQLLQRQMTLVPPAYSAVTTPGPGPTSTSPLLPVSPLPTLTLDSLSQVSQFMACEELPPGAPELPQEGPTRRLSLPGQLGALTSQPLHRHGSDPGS

SMILES	hERG current change (%, negative = inhibition) at 1uM
CCn1c(C)cc(=S)c2ccccc21	-3.06%
N#CC1(c2ccccc2)CCC(=NO)CC1 (stereo not drawn)	14.6%
CC(C)CC(=O)N1CCN(CC2CC=CCC2)CC1.O=C(O)C(=O)O (stereo not drawn)	4.6%
CCCNC(=O)c1c(Cl)cnn1-c1ccc(C)cc1	4.22%
COc1ccccc1C1/C(=C(/O)c2ccc(C)cc2)C(=O)C(=O)N1CC(C)O (stereo not drawn)	13%
COc1ccccc1N1CCN(CCN2C(=O)CC(=C3c4ccccc4-c4ccccc43)C2=O)CC1.Cl	2.87%
CCCNC(=O)c1ccc2c(=O)c(O)c(-c3ccsc3)[nH]c2c1	4.96%
CCn1c(SCC(=O)N2CCCCCC2)nc2c(c1=O)SCC2	9.44%
O=C(c1ccco1)N1CCN(c2cc(=O)n(-c3ccc(Cl)cc3)c(=O)[nH]2)CC1	1.54%
O=C(CCC(=O)Nc1ccc(F)cc1)N/N=C/c1ccccc1O	10.9%
Cc1ccc(C(=O)OC(C)C(=O)NCc2ccc3c(c2)OCO3)cc1S(=O)(=O)N1CCOCC1 (stereo not drawn)	19.1%
CC(OC(=O)c1ccc(Cl)c([N+](=O)[O-])c1)C(=O)N1CCN(Cc2ccccc2)CC1 (stereo not drawn)	-30.3%
CC(NC(=O)c1ccccc1)C(=O)OCn1nnc2ccccc2c1=O (stereo not drawn)	5.85%
Cc1ccc(OC(=O)C2CSC3(C)CCC(=O)N23)c(Br)c1 (stereo not drawn)	-1.47%
Cc1ccc(S(=O)(=O)N2CCCCC2)cc1NC(=O)Cn1ccsc1=N.Cl	-2.65%
CCOc1ccc(N2C(=O)/C(=C/c3cccs3)N(C)C2=S)cc1	11.1%
CCOC(=O)CCCNC(=O)COC(=O)/C=C/c1ccc2c(c1)OCO2	10.1%
CCCCN(CC)C(=O)Cc1c(C(=O)O)[nH]c2ccc(Cl)cc12	7.28%
COc1ccc(S(=O)(=O)N2CCN(c3ccc(F)cc3)CC2)cc1C(=O)N1CCCC1	5.33%
COc1ccc(CCNC(=S)c2ccccc2)cc1OC	7.2%
O=C1C(Cl)=C(NCC2CCCO2)C(=O)N1Cc1ccccc1 (stereo not drawn)	5.51%
Cc1ccc(S(=O)(=O)N(OCc2ccccc2)C(C)C(=O)O)cc1 (stereo not drawn)	12.2%
CC1CCN(c2ccc(C(F)(F)F)cc2N)CC1	11%

SMILES	hERG current change (%, negative = inhibition) at 1uM
Cc1n[nH]c(=S)n(/N=C/c2ccccn2)c1=O	11.6%
CCOc1ccccc1NC(=S)NNS(=O)(=O)c1c(C)cc(C)cc1C	9.13%
COC(=O)c1cccc(-n2cnnn2)c1	4.49%
O=C(CSc1nnnn1-c1ccccc1)c1cc2ccccc2oc1=O	9.85%
CC(N)Cc1c[nH]c2ccc(OCc3cccs3)cc12.Cl (stereo not drawn)	-2.35%
CCOC(=O)Cc1ncccc1C(=O)Nc1ccc(OC(F)(F)F)cc1	8.51%
COc1ccc(OC)c(C2C(C(=O)c3cc4ccccc4o3)=C(O)C(=O)N2c2cc(C)on2)c1 (stereo not drawn)	8.37%
Cl.O=C(COc1ccccc1CNCc1ccccc1)Nc1ccccc1	10.2%
CNc1snc(C)c1C(=O)OCC(=O)c1cc(F)ccc1OC	4.98%
COc1ccc(N2CCN(C(=S)NC(C)c3ccccc3)CC2)cc1 (stereo not drawn)	13.3%
COC(=O)c1ccc2c(c1)C(=O)/C(=C/c1ccc(C)cc1)O2	-3.76%
CC(OC(=O)c1cn(C)c2ccccc12)C(=O)N1CCCC1 (stereo not drawn)	9.65%
CC(C)NC(=S)N1CCn2c(nc3ccccc32)C1	17.6%
COc1ccc(C(CNC(=O)c2cc(S(=O)(=O)NCc3ccccc3)ccc2C)N2CCOCC2)cc1 (stereo not drawn)	-5.4%
Cc1cc(C(=O)Nc2ccccc2N2CCOCC2)ccc1[N+](=O)[O-]	4.18%
COCc1cc(Sc2ccc(Cl)cc2)nc(-c2ccccc2)n1	-1.26%
COc1ccc(C2CC(c3cccc(OC)c3)n3nc(N)nc3N2)cc1 (stereo not drawn)	-1.29%
COc1cc(C=O)ccc1OC(=O)Nc1ccccc1	7.65%
Cc1ccc(C)c(Nc2cc(C)nc3ncnn23)c1	5.24%
CCOC(=O)Cn1c(-c2cccnc2)nc(-c2ccccc2)c1-c1ccccc1	4.57%
CC(=O)c1sc(N)nc1C	13.9%
Cc1cc(OCCCC(=O)Nc2cccc(-n3cnnn3)c2)ccc1Cl	18.3%
CC(C)CCC(C(=O)O)C(C)CC(=O)NNC(=O)c1ccco1 (stereo not drawn)	2.9%

SMILES	hERG current change (%, negative = inhibition) at 1uM
CCC(NC(=O)C(C)NC)C(=O)N1CCCC1C(=O)NC1CCCc2ccccc21.O=CO (stereo not drawn)	14.7%
COc1ccc(OC)c(CCNC(=O)Cn2cccc2C(=O)c2ccccc2)c1	6.75%
CCc1ccc(C(=O)Cn2cnc3cc([N+](=O)[O-])ccc3c2=O)cc1	2.52%
CCOC(=O)CSc1nc2cc3c(cc2cc1C#N)OCCO3	12.2%
CCOC(=O)Cn1nc(-c2ccc(C)cc2)c2ccccc2c1=O	12.8%
COc1cccc(CN2CCCC(C(=O)Nc3ccc(-c4cscn4)cc3)C2)c1 (stereo not drawn)	-10.8%
Cc1cccc(/C=N/Nc2cc(N3CCOCC3)nc(N3CCOCC3)n2)c1	9.7%
NNC(=O)c1n[nH]c(=O)c2ccccc12	8.26%
CC1CCN(C2=NC(=O)/C(=C/c3ccc(O)cc3)S2)CC1	-18.2%
O=C(CSc1nnnn1-c1ccc(C(=O)O)cc1)NC1CC1	-7.78%
CCOc1ccc(N(CC(=O)NCCSCc2ccco2)S(=O)(=O)c2ccc(C)cc2)cc1	9.21%
Cc1cc(Cl)cc(C)c1OCCNCc1ccccc1.O=C(O)C(=O)O	9.5%
O=C(O)Cn1nc(C(F)(F)F)c2c1CCCCC2	-10.1%
CC(C)(C)c1ccc(OCc2ccc(C(=O)N/N=C/c3ccc([N+](=O)[O-])cc3)o2)cc1	8.39%
CC1CN(S(=O)(=O)c2cccc(C(F)(F)F)c2)C(C)N1C(=O)N1CCOCC1 (stereo not drawn)	16.7%
COc1ccc(-c2nnn(CC(=O)N(CCN3CCOCC3)C(C(=O)NC3CCCCC3)c3ccco3)n2)cc1 (stereo not drawn)	7.48%
COc1ccc(C2CC2C(=O)c2ccccn2)cc1 (stereo not drawn)	10.5%
Cc1ccc(C)c(N2CCN(CCCNC(=O)Cn3c(=O)c4cccn4c4cccnc43)CC2)c1	-22.3%
CCSc1nnc(CNC(=O)C23CC4CC(CC(C4)C2)C3)n1Cc1ccccc1	11.2%
CC(=O)Nc1nc(-c2ccc(Cl)cc2)nc(C)c1C(C)=O	4.22%
COC(=O)c1cc(=O)n(Cc2ccco2)c(=Nc2ccc(F)cc2)s1	3.79%
O=C(c1cc2ccccc2o1)N1CCN(c2ccccn2)CC1	4.04%
O=C(COc1coc(CN2CCN(c3ccccc3)CC2)cc1=O)NC1CCCC1	4.28%

SMILES	hERG current change (%, negative = inhibition) at 1uM
CCCn1nc(NC(=O)c2cccs2)c2cc3ccccc3nc21	-10.3%
COc1cccc(-c2nnn(CC(=O)N3CCC(C)CC3)n2)c1	19.4%
CCOC(=O)c1ccc(N2C(=O)CC(Sc3nnc(C)s3)C2=O)cc1 (stereo not drawn)	14.2%
COCc1[nH]nc2c1C(c1cc(OC)c(O)c(OC)c1)C(C#N)=C(N)O2 (stereo not drawn)	11%
O=C(NNS(=O)(=O)c1ccccc1)Nc1ccc(F)cc1	5.39%
O=C(OCc1nnc(-c2ccccc2)o1)c1ccc(Br)o1	6.57%
CC(NC(=O)NC1CCCCC1)C(c1cccs1)N1CCOCC1 (stereo not drawn)	14.3%
CC(C)c1cc(C(F)(F)F)n2nc(C(=O)Nc3ccc(-n4cnnn4)cc3)cc2n1	11.7%
Cc1ccc(Sc2c([N+](=O)[O-])ncn2C)cc1	8.06%
Cc1nc(Cl)c2oc3ccccc3c2n1	8.52%
O=C(CC1(O)C(=O)Nc2cc(Cl)cc(Cl)c21)c1ccccc1O (stereo not drawn)	6.29%
CCc1ccccc1NC(=O)CN(C)C(=O)c1cc(C2CC2)nn1-c1ccccc1	18.1%
C[C@]12CCC(=O)C=C1CC[C@@H]1[C@@H]2[C@@H](O)C[C@@]2(C)[C@H]1CC[C@]2(O)C(=O)COC(=O)CCC(=O)[O-].[Na+]	8.86%
COc1ccc(S(=O)(=O)N(C)CC(=O)NC2CCCCC2)cc1OC	9.34%
CCOC(=O)C1(CCCc2ccccc2)CCN(Cc2ccn[nH]2)CC1	-27.8%
CC(C)c1nc2ccccc2n1CCC(=O)O	4.92%
COC(=O)C1=CN(c2ccc(F)c(F)c2)C=C(C(=O)OC)C1c1ccc([N+](=O)[O-])cc1	-5.26%
CCCN(CC(=O)Nc1ccccc1C)C(=O)C1CC(=O)N(Cc2ccccc2)C1 (stereo not drawn)	1.21%
CCNc1c(NS(=O)(=O)c2ccc(OC)cc2)c(=O)oc2ccccc12	-6.47%
CC(C)CC(=O)Nc1ccc2nn(-c3ccccc3)nc2c1	18.4%
CCC(Oc1ccc2c(=O)c(-c3ccccc3OC)coc2c1)C(=O)OCc1ccccc1 (stereo not drawn)	13%
